Experimental data taken from PubChem BioAssay AID463173 (ICCB-Longwood Screening Facility, Harvard Medical School, 2010).
The whole screen tested about 52,000 compounds, of which about 1,700 (3.3%) were called active. No stated cut-off is given here; in the data, active means survival mostly below about 52% (no sharp cut-off); inactive means mostly above about 56%. Some of the results follow.

test system: Wild type; assay: S. aureus survival, RN4220 and DeltatarO strains – OD600, teichoic acid synthesis inhibitors, primary screen (AID 463173); settings: S. aureus RN4220 wild type/DeltatarO growth, OD600, 18 h, stronger effect = lower value, screened at 18.75 µg/mL (by protocol)

Q: How did the survival turn out when `CCC1CCCCN1C(=O)Cn1c(=O)n(CCCCCC(=O)NCc2ccccc2Cl)c(=O)c2sccc21` (configuration not stated) was run?
A: inactive: 93%

Q: With `COC(=O)c1ccc(NC(=O)CC2C(=O)N(c3cccc(C)c3)C(=O)N2C2CCCC2)cc1` (configuration not stated) as the compound, how does the survival read?
A: inactive: 136%

Q: For `O=C(CCCc1ccccc1)NCC1CCCO1` (configuration not stated), which survival is on record?
A: inactive: 107%

Q: Which survival does the source give for `O=C(CSc1nc2ccccc2c(=O)[nH]1)NC1CCCC1` here?
A: inactive: 103%

Q: For `O=C(CSc1cn(CCNC(=O)c2ccccc2F)c2ccccc12)Nc1ccc(F)cc1`, which survival is on record?
A: inactive: 64%

Q: For `COc1cccc(N2C(=O)CSC23C(=O)N(CC(=O)Nc2cccc(Cl)c2)c2ccccc23)c1` (configuration not stated), which survival is on record?
A: inactive: 70%

Q: `CCCn1c(=O)c(C(=O)Nc2nccs2)c(O)c2ccccc21` was tested. Which survival did it give?
A: inactive: 97%

Q: How did the survival turn out when `COc1cccc(-n2c(-c3ccco3)nc3c(cnn3-c3ccc(Cl)cc3)c2=O)c1` was run?
A: inactive: 106%

Q: For `CCn1c(C)c(C)c2cc(C(=O)N3CCN(c4cccc(C)c4C)CC3)ccc21`, which survival is on record?
A: inactive: 71%

Q: How did the survival turn out when `COc1cc(CN(C(=O)COc2ccccc2Cl)c2ccccn2)cc(OC)c1OC` was run?
A: inactive: 94%

Q: `Cc1ccc(C(=O)CSc2ncn(-c3ccccc3)n2)c(C)c1` was tested. Which survival did it give?
A: inactive: 115%

Q: How did the survival turn out when `CCC(=O)Nc1ccc2nc(SCc3ccccc3)sc2c1` was run?
A: inactive: 74%

Q: For `CCOc1ccc(-n2c(=O)c3c4c(sc3n(CC(=O)NC(C)CC)c2=O)CCC4)cc1` (configuration not stated), which survival is on record?
A: inactive: 130%

Q: `O=S(=O)(c1ccc(Cl)cc1)c1nnn2c1nc(NCc1cccs1)c1sccc12` was tested. Which survival did it give?
A: inactive: 75%

Q: Which survival does the source give for `COc1ccc(CC(=O)Nc2cc(-c3nc4cccnc4s3)ccc2C)cc1` here?
A: inactive: 90%

Q: `CCOC(=O)c1ccc(N2C(=O)c3n[nH]c(-c4cccs4)c3C2c2cccc(OC)c2)cc1` (configuration not stated) was tested. Which survival did it give?
A: inactive: 89%

Q: With `CN(C)S(=O)(=O)N(CC(=O)NCCSCc1cccc(Cl)c1)c1ccccc1` as the compound, how does the survival read?
A: inactive: 76%

Q: `CCC(CC)C(=O)N1CCc2cc(OC)c(OC)cc2C1COc1ccc(C(=O)OC)cc1` (configuration not stated) was tested. Which survival did it give?
A: inactive: 89%

Q: `COc1ccc(C)cc1NC(=O)CSc1nc(=O)[nH]c2c1CCCC2` was tested. Which survival did it give?
A: inactive: 128%

Q: For `CCOc1ccc(-n2cc(-c3ccccc3)c3c(N4CCC(C)CC4)ncnc32)cc1`, which survival is on record?
A: inactive: 72%

Q: `CCOc1ccccc1NC(=O)C(=O)c1cc(C)n(-c2ccc(F)cc2)c1C` was tested. Which survival did it give?
A: inactive: 113%

Q: With `COc1ccc(-c2nnc(Nc3ccc(OC)c(C(N)=O)c3)c3ccccc23)cc1` as the compound, how does the survival read?
A: inactive: 67%

Q: How did the survival turn out when `CCS(=O)(=O)c1nc(S(=O)(=O)c2ccc(C)cc2)c(NC(C)c2ccccc2)s1` (configuration not stated) was run?
A: inactive: 136%

Q: `O=C(NCc1ccccc1)NC1(C(=O)NCC2CCCO2)CCCCC1` (configuration not stated) was tested. Which survival did it give?
A: inactive: 108%

Q: `Cc1ccc(Nc2c(-c3ccc(C)cc3)nc3ccc(C)cn23)cc1` was tested. Which survival did it give?
A: inactive: 121%

Q: For `Cc1cc(C)cc(Nc2ncnc3onc(-c4ccc(F)cc4)c23)c1`, which survival is on record?
A: inactive: 82%

Q: `Cc1ccc(S(=O)(=O)c2nc(-c3ccc(F)cc3)oc2SCC(=O)c2ccccc2)cc1` was tested. Which survival did it give?
A: inactive: 69%

Q: Which survival does the source give for `CCc1ccc2oc(-c3cccc(NC(=O)C(C)(C)Oc4ccc(Br)cc4)c3)nc2c1` here?
A: inactive: 21%

Q: Which survival does the source give for `COc1cccc(-n2c(SCC(=O)N3CCCc4ccccc43)nc3c([nH]c4ccccc43)c2=O)c1` here?
A: inactive: 66%

Q: `CCc1ccc(S(=O)(=O)NCc2nc3cccnc3n2Cc2ccccc2Cl)cc1` was tested. Which survival did it give?
A: inactive: 83%

Q: For `CCn1c(COc2ccc(C)cc2)nnc1SCC(=O)N1CCCc2ccccc21`, which survival is on record?
A: inactive: 123%

Q: How did the survival turn out when `CCCOc1ccc(CNC(=O)Cn2cc3c(n2)-c2c(oc(C(=O)N4CCOCC4)c2C)CC3)cc1` was run?
A: inactive: 96%

Q: `O=C(c1ccc2c(c1)CCCC2)N1CCN(c2nc3ccc(F)cc3s2)CC1` was tested. Which survival did it give?
A: inactive: 83%

Q: `CCOc1ccc(CNC(=O)c2cc3c(s2)-c2ccccc2OC3)cc1` was tested. Which survival did it give?
A: inactive: 91%

Q: Which survival does the source give for `CC1(C)OC(c2ccncc2)OC1(C)C` here?
A: inactive: 134%

Q: How did the survival turn out when `COc1ccc(Cl)cc1NC(=O)Cn1c(=O)n(CCCC(=O)NCCc2ccc(OC)c(OC)c2)c(=O)c2ccccc21` was run?
A: inactive: 79%

Q: With `O=C(CCSCc1cccc(F)c1)NCc1ccccc1` as the compound, how does the survival read?
A: inactive: 86%

Q: For `CCOc1ccc2nc(SCC(=O)N(C)C3CCCCC3)c(C#N)cc2c1`, which survival is on record?
A: inactive: 106%

Q: How did the survival turn out when `CC(C)CNC(=O)C1CCN(S(=O)(=O)c2ccc(-n3cnnn3)cc2)CC1` was run?
A: inactive: 110%

Q: `CCN1CCN(c2c(S(=O)(=O)c3ccc(Cl)cc3)cnc3ccccc23)CC1` was tested. Which survival did it give?
A: inactive: 82%

Q: With `Cc1ccc(NC(=O)Cn2c(=O)n(CCCS(=O)(=O)C3CCCCC3)c(=O)c3ccccc32)cc1F` as the compound, how does the survival read?
A: inactive: 84%

Q: Which survival does the source give for `CC(NC(=O)c1ccc(Cn2c(=O)c3cccn3c3cccnc32)cc1)c1ccccc1` (configuration not stated) here?
A: inactive: 108%

Q: For `COc1ccc(S(=O)(=O)c2cc3cc(OC)ccc3oc2=O)cc1`, which survival is on record?
A: inactive: 76%

Q: With `COC(=O)C1=NNC2C(=O)N(c3cc(C)cc(C)c3)C(=O)C12` (configuration not stated) as the compound, how does the survival read?
A: inactive: 105%

Q: For `CCc1ccccc1NC(=O)N1CCc2cc(OC)c(OC)cc2C1CC(=O)OC` (configuration not stated), which survival is on record?
A: inactive: 127%

Q: How did the survival turn out when `Cc1ccc(C)c(Nc2nc3c(S(=O)(=O)c4ccc(Br)cc4)nnn3c3ccsc23)c1` was run?
A: inactive: 45%

Q: `Cn1c(=O)c2c(-c3ccccc3Cl)n(Cc3ccc(Cl)cc3)cc2n(C)c1=O` was tested. Which survival did it give?
A: inactive: 54%

Q: For `Cc1cccc(N2CCN(C(=O)CCC(=O)NNc3nc4ccccc4c4nc(C)nn34)CC2C)c1` (configuration not stated), which survival is on record?
A: inactive: 92%

Q: For `CCc1ccccc1NC(=O)CN1C(=O)COc2ccc(S(=O)(=O)Nc3ccccc3)cc21`, which survival is on record?
A: inactive: 64%

Q: `CC1NC(=O)NC2NC(=O)NC(C)C12` (configuration not stated) was tested. Which survival did it give?
A: inactive: 118%

Q: With `COc1cc(C2c3c(-c4c(C)cc(C)cc4O)n[nH]c3C(=O)N2CCCOC(C)C)cc(OC)c1OC` (configuration not stated) as the compound, how does the survival read?
A: inactive: 99%

Q: For `COc1ccccc1Cc1nc2ccccc2nc1SCC(=O)Nc1ccccc1C(F)(F)F`, which survival is on record?
A: inactive: 77%

Q: With `COc1ccc(-c2nc3c(C#N)c[nH]n3c2NC2CCCC2)cc1` as the compound, how does the survival read?
A: inactive: 70%

Q: Which survival does the source give for `CNC(=O)Nc1ccc2nc(C)sc2c1` here?
A: inactive: 112%

Q: With `Cc1ccc(N2CC(c3nnc(Cc4ccccc4Cl)o3)CC2=O)cc1` (configuration not stated) as the compound, how does the survival read?
A: inactive: 39%

Q: Which survival does the source give for `CCOc1ccc(CNCc2c(C(=O)O)n(Cc3ccc(OC)cc3)c3ccccc23)cc1` here?
A: inactive: 82%

Q: Which survival does the source give for `COc1ccc(N(C(=O)c2ccc(Cl)cc2)S(=O)(=O)c2ccc(C)cc2)cc1` here?
A: inactive: 81%
